Measurements from the supplement of paper PMC4466236.
In all, about 33,000 sequences were measured (“E-score (dimensionless, -0.5 to 0.5)”: median about -0.058, highest 2% from about 0.35 on). This is one part of the list.

Tested on: MvaT
Assay: PBM 8-mer E-score (mean of HK and ME arrays) (E-score (dimensionless, -0.5 to 0.5)); higher = stronger relative binding preference; most listed sequences are background and not binding sites
Description: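 Protein binding microarray: GST-tagged full-length MvaT (P. aeruginosa PAO1) bound to two universal double-stranded 60-mer arrays (ME and HK), each with a constant 25-mer primer and a variable 35-mer region covering all 8-mers. The 8-mer E-score (rank-based, range -0.5 to 0.5, >0.45 = specific binding) is the mean of the two arrays.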

Row | Sequence | PBM 8-mer E-score
1 | CTGACTCA | -0.167
2 | CAGTACGC | -0.196
3 | CGGTTATA | 0.224
4 | GAAGCGTA | -0.0392
5 | GCACGGGA | -0.252
6 | GACCTTTA | 0.0184
7 | CTGCCCGC | -0.327
8 | ACTGAGGC | -0.0606
9 | AATCTATC | 0.193
10 | AACTGGAT | 0.113
11 | CGTCGGGC | -0.21
12 | GAACTAAC | 0.241
13 | CTTATCCC | -0.0794
14 | CAGTGCCC | -0.263
15 | AATACTCC | 0.231
16 | GGTCAGAC | -0.0755
17 | ATCCATCA | 0.0119
18 | CCTTTCCA | -0.0831
19 | GCCTCTAA | -0.00163
20 | CGATAACC | -0.0801
21 | CTTACGAA | 0.184
22 | AGGAACAC | -0.0883
23 | ATGCGACG | -0.0988
24 | AGTCATTC | 0.0718
25 | CACCTAGA | -0.0101

Row | Sequence | PBM 8-mer E-score
26 | TACTCGGA | 0.0503
27 | AACCTACA | 0.00823
28 | GAGGGCAA | -0.147
29 | TACTGGCA | 0.0463
30 | ACAAGATC | 0.0189
31 | AAGAGGAT | 0.0394
32 | AAAATTGT | 0.269
33 | CTATGCAG | -0.146
34 | GAGCAGCC | -0.309
35 | GTATGTCA | -0.0803
36 | TCTAAACA | 0.092
37 | CCTGCTAA | -0.131
38 | GCGCACCA | -0.225
39 | AGCCGTAA | 0.00828
40 | GAAGACCA | -0.15
41 | ATAAGAGC | 0.153
42 | GAGTAGAA | 0.0154
43 | CGGAAGGC | -0.301
44 | ACGCGGCC | -0.199
45 | ACTCTTCC | -0.212
46 | AACACTGG | 0.00512
47 | CGATGGAA | -0.0621
48 | ACAGCCAG | -0.127
49 | ATTCATCA | 0.202
50 | CAGCCCGA | -0.207

Row | Sequence | PBM 8-mer E-score
51 | ACGCAGCG | -0.238
52 | AGGTAGTA | 0.0553
53 | AGAAAGAC | 0.00959
54 | GAAATGCC | -0.0371
55 | GATTTCGA | -0.00454
56 | CAGAACAG | 0.0213
57 | ACTAAGAG | 0.122
58 | AGTAATAA | 0.327
59 | AGCGGTGA | -0.0221
60 | CGCATGCA | -0.0411
61 | AGGCCGTA | -0.217
62 | AGGGGGTC | -0.293
63 | ATGGCCTA | -0.0414
64 | ATTAACGG | 0.219
65 | GTTGAGAA | -0.0233
66 | TCCCTGCA | -0.213
67 | GACGTGCC | -0.281
68 | GTACTGCA | 0.0657
69 | ACTGCTCT | -0.108
70 | GTGTCAGA | -0.0506
71 | GACCAATC | -0.113
72 | CCCGGGAG | -0.176
73 | GGACGTCC | -0.242
74 | CCCCAACC | -0.338
75 | CTACATCC | -0.0516

Row | Sequence | PBM 8-mer E-score
76 | CATAAGTC | -0.0483
77 | CAGTACAC | -0.0493
78 | AATAGTGC | 0.22
79 | AATTCGAG | -0.0357
80 | GCACCGAA | -0.102
81 | CACTCAGC | -0.151
82 | CCATTTAA | 0.272
83 | ATCCTTGG | -0.116
84 | AGAAAAAA | 0.0527
85 | AAGTTGAG | 0.0659
86 | GGATTCGA | -0.0781
87 | AAGACTGT | 0.0403
88 | ACTTCTCG | 0.0602
89 | AACTCGTC | 0.0126
90 | CAGGTCGA | -0.187
91 | ACGAAACC | -0.0729
92 | AATTGCAC | 0.178
93 | AGTTCCAA | 0.128
94 | GTAAGACA | 0.159
95 | TATTTAAA | 0.433
96 | AATACCCA | 0.323
97 | AAACAAGG | 0.0768
98 | GGGACCGA | -0.255
99 | GGTATTAC | 0.209
100 | CGTACTGC | -0.058

Row | Sequence | PBM 8-mer E-score
101 | AGTCTAGG | -0.276
102 | CATTGGGG | -0.157
103 | CAGGGTTC | -0.251
104 | ATCCATTC | -0.0391
105 | AAAGCGAA | 0.149
106 | AAGTGATG | 0.134
107 | AGTGTTGA | 0.0937
108 | AGGGGCAA | -0.204
109 | ACTGGCCG | -0.0768
110 | AGGATGTA | 0.125
111 | GAAAAATC | -0.104
112 | GACGTTTA | 0.00657
113 | CTGTCTAC | -0.108
114 | AACTCACC | -0.00356
115 | ACAATCTC | 0.028
116 | ATAGAAGC | -0.00456
117 | CGTAGAAC | -0.165
118 | GTTTGAGA | 0.0188
119 | CAGTACCG | -0.0734
120 | TAAGCAAA | 0.191
121 | GCAACGGA | -0.0564
122 | CGCGATGC | -0.0492
123 | CAGGACGC | -0.254
124 | TGTGTCAA | 0.0614
125 | CAAATATA | 0.433

Row | Sequence | PBM 8-mer E-score
126 | CTTCTCCA | -0.0708
127 | CATATCGG | 0.0569
128 | AGTTCCCA | -0.0505
129 | ACAGGTGA | -0.0802
130 | AGGGTCCG | -0.229
131 | GCCCGCGA | -0.31
132 | CAGGGGGC | -0.328
133 | AGCGGTAG | -0.00435
134 | CCGCGTTC | -0.22
135 | GACGATGA | -0.129
136 | GTCCTGGA | -0.103
137 | AAAATCGG | 0.0418
138 | ACCTGTAT | 0.145
139 | CTGTACCC | -0.208
140 | GGTAAAGA | 0.0344
141 | AATGAGTA | 0.211
142 | GCGGTGCA | -0.0493
143 | ATAGCCAA | -0.0619
144 | ATTAAATG | 0.373
145 | AATTTTAA | 0.321
146 | GGTTCGCA | -0.166
147 | CTGGCTTA | 0.0313
148 | CGTCTGAA | 0.102
149 | ACGATTTG | 0.0263
150 | CTATTAGC | 0.136

Row | Sequence | PBM 8-mer E-score
151 | AAATGCCC | 0.0772
152 | ACCTTCCG | -0.174
153 | AACTGGGT | 0.0603
154 | CAGGAATA | 0.209
155 | GGTCCGTA | -0.118
156 | ACACTCCC | -0.00882
157 | CATTTTCA | 0.108
158 | GGAATAAA | 0.289
159 | CGGACCTA | -0.271
160 | GGGTCCAA | -0.28
161 | ATCATAAA | 0.308
162 | TAAGTACA | 0.196
163 | CCAAGTTA | 0.196
164 | TTCCGAAA | 0.1
165 | ATTTAATC | 0.346
166 | AATGGCCT | -0.18
167 | GGATGGAA | -0.0929
168 | ACATCCGG | -0.0494
169 | GCTTGGGA | -0.194
170 | CGGACGCC | -0.245
171 | ATCAGCAG | -0.0789
172 | ACAGCGTC | -0.26
173 | AGGAGCCT | -0.293
174 | CACTGGAG | -0.137
175 | TCCGTGCA | -0.108

Row | Sequence | PBM 8-mer E-score
176 | GTGATGGA | -0.164
177 | AGTACTGG | 0.174
178 | ACATCGTA | 0.0214
179 | ATTAAAGA | 0.264
180 | TCGTTCCA | -0.0799
181 | ATGTTTGC | 0.106
182 | ACATACGA | 0.101
183 | CGTTCCAC | -0.0562
184 | AGGCCTGG | -0.315
185 | ACACAGCG | -0.0306
186 | TAGTCCAA | 0.191
187 | CAAGCCAA | -0.129
188 | GAGTAGCA | -0.169
189 | CTTAATTA | 0.454
190 | CAGACTAC | -0.0173
191 | CAACCTTA | 0.0197
192 | ATAGACTC | -0.0741
193 | ATACAACG | 0.181
194 | ATCATTTC | 0.0246
195 | AACACCAA | 0.0452
196 | AGTACAAG | 0.0783
197 | AAAGGCAC | -0.169
198 | CGCGTCGA | -0.182
199 | ACAGCACG | -0.0895
200 | ACCGAGCG | -0.188

Row | Sequence | PBM 8-mer E-score
201 | CTAAAACC | 0.0507
202 | CGGCCTAG | -0.27
203 | ACGTACGT | -0.0402
204 | ACTACTCA | 0.0173
205 | CGTCAAGC | -0.0222
206 | GTCCGTGA | -0.136
207 | CGGGGGCC | -0.335
208 | CACTCTGC | -0.113
209 | AGACTGAT | 0.00842
210 | GGTCGGTA | -0.249
211 | GTGGACCA | -0.118
212 | AATGTTCA | 0.252
213 | CAAGAAGG | -0.269
214 | CTAACCAC | -0.0777
215 | ACTGCTTC | -0.228
216 | GATTGCCC | -0.151
217 | CGTTTGTC | -0.0022
218 | GATGCACC | -0.166
219 | AGGACTAG | -0.106
